88 compounds from PubChem BioAssay (NCI) can be followed below.

Molecules are shown by their SMILES. Several values for one entry are separate records, joined by “and”; a condition that tells them apart may be missing. Identical values can stand only once.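 Compound exposure: 48 hours, 5 concentrations, 96-well plates. GI50 = concentration required for 50% inhibition of growth. TGI denotes the concentration required for complete inhibition of growth.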 Square brackets hold non-standard residues; d marks the D form. Peptide text beside a SMILES is read from it. * marks the point of attachment. Bn2Val = CC(C)[C@@H](C(=O)*)N(Cc1ccccc1)Cc1ccccc1; NH(3,4-diMeO-benzyl) = COc1ccc(CN*)cc1OC; NMeV = CN[C@H](C(=O)O)C(C)C; dNMeA = CN[C@H](C)C(=O)O

For this experiment, the system named is NCI-H322M lung. Briefly: NCI anticancer screen, dose series, 48 h.
As for `O=C1CSC(N2CCN(c3cccc(Cl)c3)CC2)=N1`, the GI50 was above 100 µM and the TGI is above 100 µM. Turning to `N#Cc1c(O)c2c(c(O)c1C#N)C(=O)c1ccccc1C2=O`, the GI50 was 2.92 µM and the TGI was 12.1 µM.

The compound `O=C(O)/C=C/C(=O)Nc1ncn[nH]1` came in with a TGI above 100 µM. On the same count and under the same terms, to `NCCCC(N)C(=O)O` (stereo unspecified) belongs above 100 µM; to `N#CC(C#N)=C1CCCS(=O)(=O)c2ccccc21`, above 100 µM; to `O=C1C(Cl)N(c2ccccc2)C1c1c[nH]c2ccccc12` (stereo unspecified), above 100 µM. Consider `O=[n+]1c(CBr)c(CBr)n([O-])c2ccccc21`, for which the GI50 is 15.8 µM and the TGI stood at 30.9 µM. In the case of `COC(=O)CCCC(=O)C(=Nc1c(Cl)cccc1Cl)NNc1ccc(Cl)cc1`, the TGI was above 100 µM. On the same count and under the same terms, to `CC1=CC(=O)N(n2c(C)n[nH]c2=O)C1=O` belongs above 100 µM. Regarding `O=C1c2ccccc2C(=O)c2c1ccc1[nH]c(CCl)nc21`, the GI50 was 11.2 µM and the TGI was determined as 23.3 µM. Compound `Cc1nc2cc(C(F)(F)F)ccc2[nH]c1=O` showed a TGI above 100 µM. The same measure, in the same setting: in the case of `C#CC(C)(C)Oc1cc(O)c2c(=O)c3ccccc3n(C)c2c1` it was above 100 µM. As to `C[C@@H]1Cc2c([nH]c3ccccc23)[C@@H](c2c(F)cc(/C=C/C(=O)O)cc2F)N1CC(C)(C)F`, the GI50 was 13.8 µM and the TGI worked out at 32 µM. Compound `CC1(C)N=C(N)N=C(N)N1c1ccc(CCCCc2ccc(S(=O)(=O)F)cc2Cl)c(Cl)c1` displayed a TGI of 190 µM. For the compound `COc1ccc(CN2CCCC(C(=O)c3ccc(C(F)(F)F)cc3)C2)c(O)c1` (stereo unspecified), the GI50 was 57 µM and the TGI is above 100 µM. Turning to `COc1cc2c(c(OC)c1OC)-c1ccc(NCc3ccccc3)c(=O)cc1[C@@H](NC(C)=O)CC2`, the GI50 was 0.612 µM and the TGI was above 100 µM. In turn, `Cc1cccc(N(CCC#N)S(=O)(=O)c2ccccc2)c1` returned a TGI above 100 µM. `COC(=O)c1c(OC)cccc1C(=O)O`: the TGI is above 100 µM.

For the compound `CCCCn1/c(=N/C(=S)N(C)C)ss/c1=N\C(=S)N(C)C`, the TGI is above 100 µM. For the compound `CC(=O)/C(=C/n1c(=S)sc2ccccc21)C(=O)Nc1ccccc1C`, the TGI was above 100 µM. For the compound `COc1cc2c(cc1O)[C@H](Cc1ccc(Oc3cc(C[C@H]4c5cc(OC)c(OC)cc5CCN4C)ccc3OC)cc1)NCC2`, the TGI amounted to 31.2 µM.

Compound `CN1CCN(C(=S)N(C)C(=O)c2ccc(Cl)cc2)CC1` yielded a TGI above 100 µM. Same read-out and setting: to `Cc1nc2ccc([N+](=O)[O-])cc2c(=O)n1C(=S)Nc1cccc(Cl)c1` belongs 81.3 µM. As for `O=C1c2ccccc2-c2c1c1cc3c(cc1c(=O)n2CCCCl)OCO3`, the GI50 was 15.1 µM and the TGI was 68 µM. For `O=C1CCC(NC(=O)c2ccccc2)C(=O)N1` (stereo unspecified), the TGI was above 100 µM.

With `COc1ccc(CNc2nc3ccc(C(F)(F)F)cc3nc2-c2ccccc2)cc1OC`, the TGI is above 100 µM. The same measure, in the same setting: to `OCc1c(-c2cccc3ccccc23)sc(-c2cccc3ccccc23)c1CO` belongs 28.6 µM. The compound `Cc1nc(Cl)c(CBr)c(Cl)n1` yielded a TGI of 3.77 µM. On the same count and under the same terms, in the case of `O=C(O)c1cc(S(=O)(=O)N=NC=C2c3ccccc3N(O)c3ccccc32)ccc1O` it was above 100 µM. On to `CC[n+]1ccc2c(c1)C(=O)c1nccc3c1c-2nc1ccccc13`, for which the GI50 is 0.711 µM and the TGI came to 3.7 µM. For `O=C1C(C=NCCc2c[nH]c3ccccc23)C(C(F)(F)F)=NN1c1nc2ccccc2s1` (stereo unspecified), the TGI came to 95.9 µM.

As for `N#CSCc1cccc(Nc2cc(=O)[nH]c(=O)[nH]2)c1`, the TGI was above 100 µM. The same measure, in the same setting: in the case of `CC1=CC=CC(C)(C)CC1(O[Si](C)(C)C)C(F)(F)F` (stereo unspecified) it was above 100 µM.

In the case of `ClCc1ccccc1CSc1ncnc2nc[nH]c12`, the GI50 was above 60 µM and the TGI was above 60 µM. As for `CCOc1ccc2nc(NC(=O)/C(CC(=O)CC(C3=C(O)c4ccccc4CC3=O)c3ccccc3)=N\O)sc2c1` (stereo unspecified), the TGI was above 100 µM.

`CCOC(=O)c1cnc2[nH]ccn2c1=O` returned a TGI above 10 µM. Compound `CC(C)(C)C1=NC(S)NC(CCC(=O)Nc2ccccc2[N+](=O)[O-])=C1` (stereo unspecified) returned a TGI above 100 µM. For the compound `O=C1/C(=C/c2ccc(F)cc2)CNC/C1=C\c1ccc(F)cc1`, the TGI came out at 18 µM.

On to `CCN(CCCN(CC)C(=O)N[C@@H](Cc1ccccc1)C(=O)NC)C(=O)N[C@@H](Cc1ccccc1)C(=O)NC`, for which the TGI is above 100 µM. Compound `CC(=O)/C=C/c1cccc(N=S)c1` came in with a TGI above 100 µM.

The compound `O=C(O)c1ccc(NS(=O)(=O)Cc2ccccc2)cc1` gave a TGI above 100 µM. Still for that read-out and setting: in the case of `N#Cc1c2c(c(Nc3ccc(F)cc3)n3c1nc1ccccc13)CCC2` it was 23.7 µM; in that of `CN(C)c1ccc(/C=C2\C[N+](C)(C)C/C(=C\c3ccc(N(C)C)cc3)C2=O)cc1`, above 100 µM. For `Cn1c(-c2nonc2N)nc2cnccc21`, the GI50 is above 25 µM and the TGI was above 25 µM. As for `COC1C=CC23c4cc5c(cc4C(O)OC2CN(C)C3C1)OCO5` (stereo unspecified), the TGI is 9.45 µM. `O=S(=O)(O)C(O)/C=C/c1ccccc1` (stereo unspecified) gave a TGI above 100 µM. `O=C1/C(=C/c2ccccc2)CN(C(=O)Oc2ccc(Cl)cc2)C/C1=C\c1ccccc1` came in with a TGI above 81.6 µM. Consider `COC(=O)C(CC(=O)c1cc2c(cc1I)OCO2)Cc1cc(OC)c(OC)c(OC)c1I` (stereo unspecified), for which the TGI is above 100 µM. Regarding `CNC(=O)c1cc(Oc2ccc3c(c2)sc2nc(-c4ccc(N)cc4)cn23)ccn1`, the GI50 is 0.668 µM and the TGI was above 100 µM. Compound `O=c1nc2c(c(-c3cccc(Cl)c3)[nH]1)COC/C2=C\c1cccc(Cl)c1` gave a TGI above 100 µM.

Consider `COc1nc2c(cc1S(=O)(=O)c1ccccc1)CCc1c-2cnn1-c1ccccc1Cl`, for which the GI50 was 4.76 µM and the TGI is above 100 µM.

Compound `C[C@]12CCC(=O)C=C1CC[C@@H]1C2CC[C@]2(C)NC(=O)C(C#N)CC12` (stereo partly specified) registered a TGI above 100 µM. Take `COc1ccc(-n2cc(-c3ccc(OC)c(OC)c3)[nH]c2=S)cc1Cl`: the GI50 is above 100 µM and the TGI is above 100 µM.

Take `O=C(O/N=C1/CCC/C1=C\c1ccccc1)c1ccc([N+](=O)[O-])cc1`: the TGI is above 100 µM. Same read-out and setting: to `NC1(CCCCCCCCCCC(=O)O)CNCCNCCNCCNC1` belongs above 100 µM. On the same count and under the same terms, in the case of `CN1CCCNCCN(CCc2ccccn2)CCCN(C)CC1` it was above 100 µM. On to `N#Cc1nc(-c2ccc(F)cc2)oc1S(=O)(=O)N1CCOCC1`, for which the GI50 was 14.5 µM and the TGI is 28.2 µM.

The compound `O=c1[nH]c(=O)n(C2CC(O)C(CO)O2)cc1C#Cc1c(F)c(F)c(F)c(F)c1F` (stereo unspecified) had a TGI above 100 µM. `C[Si](C)(C)c1ccc(CC2(Cc3ccc([Si](C)(C)C)cc3)CCNC2)cc1` showed a TGI of 13.7 µM. As to `CC(=O)c1ccc(N(/C=C/C(=O)C(F)(F)F)CC(=O)c2ccc(Cl)c(Cl)c2)cc1`, the GI50 is 16.5 µM and the TGI worked out at 30.9 µM. For `Cn1cc(C2=C(c3ccc(OC[C@@H](O)CO)cc3)C(=O)NC2=O)c2ccccc21` the same measures were above 25 µM and above 25 µM. On to `CC1=C[C@@H]2Cc3occc3C(C)(C)[C@@H]2CC1`, for which the TGI was above 100 µM. Same read-out and setting: in the case of `N=[N+]=CC(=O)OCC(N)C(=O)O` (stereo unspecified) it was 88 µM; in that of `CC1=CCCC(OC(N)=O)C1` (stereo unspecified), above 100 µM.

On to `C/C(=N/NC(=S)Nc1cccc(C)c1)c1ccccn1`, for which the TGI was 0.925 µM. As for `NNC(=O)c1cnn(-c2ccnc3c(C(F)(F)F)cccc23)c1N`, the GI50 was above 100 µM and the TGI was above 100 µM. The compound `Cc1ccc(C(=O)Nc2ccc(CP(=O)(O)O)cc2)cc1NC(=O)c1cccc(NC(=O)Nc2cccc(C(=O)Nc3cc(C(=O)Nc4ccc(CP(=O)(O)O)cc4)ccc3C)c2)c1` yielded a TGI above 100 µM. Still for that read-out and setting: to `O=C1CC[C@H]2CNC(=O)C[C@H]2C1` belongs above 100 µM; to `O=C(O)CNC(=O)c1ccc([As](=O)(O)O)cc1`, above 100 µM; to `C/C(=N\NC(N)=S)c1ccc(C)cc1C`, above 100 µM. Turning to `COc1ccc(CNC(=O)COc2ccc(/C=N/Nc3nc4ccccc4s3)cc2)cc1`, the GI50 is 3.19 µM and the TGI was above 100 µM. Consider `O=C1CC(c2ccc([N+](=O)[O-])cc2)C2(C(=O)NC(=S)NC2=O)C(c2ccc([N+](=O)[O-])cc2)C1` (stereo unspecified), for which the TGI turned out to be 35.8 µM. Compound `CN1C(=O)CN(NC(=O)C2=C(O)c3ccc(Br)cc3S(=O)(=O)N2)C1=S` came in with a TGI above 100 µM. On the same count and under the same terms, in the case of `CCCNC(=O)OCc1c(COC(=O)NCCC)c(-c2ccc(Cl)c(Cl)c2)n2c1CCC2` it was 39.7 µM; in that of `Cc1oc2nc(N(C)C)n3nnnc3c2c1C`, above 100 µM.

`COc1ccc(/C=C(/C(=O)O)c2cc(OC)c(OC)c(OC)c2)cc1` registered a TGI above 100 µM. `CN(C)S(=O)(=O)Nc1ccccn1`: the TGI is above 100 µM. On to `O=C(Cc1ccc(/C=C/C(=O)c2ncc[nH]2)cc1)Nc1ccc(Cl)cc1`, for which the GI50 is 4 µM and the TGI came to 10.7 µM.

As for `O=[N+]([O-])C(=C(Sc1ccccc1)Sc1ccccc1)C(Cl)=C(Cl)Cl`, the TGI came to 23.2 µM.

For `COc1ccc(NC2Oc3cc4c(cc3C(c3cc(OC)c(OC)c(OC)c3)C2C)OCO4)cc1` (stereo unspecified), the TGI was found to be 7.05 µM. As for `CCCCCCCCCCCCOC1C(CNCC2OC3OC(C)(C)OC3C2NC(=O)Nc2ccc(C(=O)OCC)cc2)OC2OC(C)(C)OC21` (stereo unspecified), the GI50 was 8.73 µM and the TGI is 22 µM.

Consider `COc1ccc(CNC(=O)[C@@H](C)N(C)C(=O)[C@@H]2CCCN2C(=O)[C@H](C(C)C)N(C)C(=O)[C@@H](NC(=O)[C@H](C(C)C)N(Cc2ccccc2)Cc2ccccc2)C(C)C)cc1OC` (Bn2Val-V[NMeV]P[dNMeA]-{NH(3,4-diMeO-benzyl)}), for which the GI50 was 15.6 µM; the TGI was 50 µM and 49.9 µM. Turning to `O=C1/C(=C/c2ccc(Br)s2)NC(=S)N1CN1CCOCC1`, the TGI is above 100 µM. On the same count and under the same terms, in the case of `CC(C)/C(Cl)=N\OC(=O)NNc1ccccc1` it was above 100 µM. Take `CC1=C(CCCOC(=O)NCCCl)C2=C(C)C3(CC3)[C@@](C)(O)C(=O)C2=C1`: the GI50 was 2.48 µM and the TGI worked out at 8.58 µM.

The compound `CCC1CCC2CCCC(C)N12` (stereo unspecified) returned a TGI above 100 µM.

Consider `CCN(CC)CCCn1c(=O)c2cccnc2n2c3c(=O)n(C)c(=O)n(C)c3nc12`, for which the TGI was above 100 µM. The same measure, in the same setting: in the case of `Cc1cccc(C[C@@]2(SCc3ccccc3)C(C)(C)[C@@H]3CC[C@@]2(C)C3)n1` it was 55.7 µM.
